Assay results: the supplement of paper PMC12067230;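 active = nucleation score significantly above 0 at FDR 0.05; inactive = not significantly above 0 or absent from output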
Single values of this set are uncertain.

test: amyloid nucleation score relative to library mode (yeast Sup35 reporter selection) (log enrichment difference); higher = more amyloid nucleation; sequences are the first 22 residues of the Bri2 peptide extended by up to 12 random residues; conditions: random library (experiment): 1
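Further: [psi-pin-] Saccharomyces cerevisiae expressing SupN fusions, induced by 100 µM Cu2SO4, selected 7 d at 30 °C without adenine and uracil, scored by deep sequencing of output versus input.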

Row | Sequence | amyloid nucleation score
1 | EASNCFAIRHFENKFAVETLICHACLCRDGKPKG | 8.15
2 | EASNCFAIRHFENKFAVETLICLLRYLRVCRHE | -0.288
3 | EASNCFAIRHFENKFAVETLICYPISPHMYKFSD | 4.77
4 | EASNCFAIRHFENKFAVETLICNHGMVYDSMECP | inactive
5 | EASNCFAIRHFENKFAVETLICVACRLYTGAF | 0.087
6 | EASNCFAIRHFENKFAVETLICGPCGIARCSVRL | 0.42
7 | EASNCFAIRHFENKFAVETLICTRVMGQNNGGVR | 2.47
8 | EASNCFAIRHFENKFAVETLICFVKSSETGVMGC | inactive
9 | EASNCFAIRHFENKFAVETLICCRLKTVRVSVSG | inactive
10 | EASNCFAIRHFENKFAVETLICVEVTFTSPGAGW | inactive
11 | EASNCFAIRHFENKFAVETLICVIRKL | inactive
12 | EASNCFAIRHFENKFAVETLICFARIGMSIVTKH | inactive
13 | EASNCFAIRHFENKFAVETLICRKVVTFTINRRM | inactive
14 | EASNCFAIRHFENKFAVETLICRYA | inactive
15 | EASNCFAIRHFENKFAVETLICMVQ | 1.86
16 | EASNCFAIRHFENKFAVETLICECWCPVGVSMVL | 6.98
17 | EASNCFAIRHFENKFAVETLICEFYVLSVVQCSA | inactive
18 | EASNCFAIRHFENKFAVETLICDLCRAWGGMFSV | inactive
19 | EASNCFAIRHFENKFAVETLICPDVARRPWGFFG | inactive
20 | EASNCFAIRHFENKFAVETLICNARKCPYVVQVS | inactive
21 | EASNCFAIRHFENKFAVETLICDSVRPWEAAGGR | inactive
22 | EASNCFAIRHFENKFAVETLICCPACAP | 0.531
23 | EASNCFAIRHFENKFAVETLICRP | inactive
24 | EASNCFAIRHFENKFAVETLICTGKARFHTVVPG | -0.331

Row | Sequence | amyloid nucleation score
25 | EASNCFAIRHFENKFAVETLICLHCPARLRRRRR | 4.46
26 | EASNCFAIRHFENKFAVETLICQSILLTYMIVIL | inactive
27 | EASNCFAIRHFENKFAVETLICRCETCLHTKIGA | inactive
28 | EASNCFAIRHFENKFAVETLICFVFVLMKLSPGL | -0.187
29 | EASNCFAIRHFENKFAVETLICRYRAWSQVPSTC | inactive
30 | EASNCFAIRHFENKFAVETLICNMIHVRHDSCRL | inactive
31 | EASNCFAIRHFENKFAVETLICHMYVMTGVGMGC | 5.41
32 | EASNCFAIRHFENKFAVETLICLLLCRLRVSESA | inactive
33 | EASNCFAIRHFENKFAVETLICYDITLCRVSGNG | 1.38
34 | EASNCFAIRHFENKFAVETLICQLFSDKGTRPRR | 3.35
35 | EASNCFAIRHFENKFAVETLICWLQYMSFQGNMP | inactive
36 | EASNCFAIRHFENKFAVETLICDRFTRLDPYCHK | 2.37
37 | EASNCFAIRHFENKFAVETLICTSAHLEYALGGG | 4.44e-16
38 | EASNCFAIRHFENKFAVETLICFWMCNFIGNGFP | 1.14
39 | EASNCFAIRHFENKFAVETLICRAGSAHRPAASL | inactive
40 | EASNCFAIRHFENKFAVETLICLKPVTLRNGHAF | inactive
41 | EASNCFAIRHFENKFAVETLICWNM | 5.75
42 | EASNCFAIRHFENKFAVETLICVSSLCSSQVWLR | inactive
43 | EASNCFAIRHFENKFAVETLICMCRLM | 8.24
44 | EASNCFAIRHFENKFAVETLICVETAEPGVLGQG | inactive
45 | EASNCFAIRHFENKFAVETLICVGSFGSNGHVAC | inactive
46 | EASNCFAIRHFENKFAVETLICGGSVGARGTSSA | inactive
47 | EASNCFAIRHFENKFAVETLICTCTAHYQKGSLV | inactive
48 | EASNCFAIRHFENKFAVETLICQCVSSTS | inactive

same assay, conditions: random library (experiment): 2

Row | Sequence | amyloid nucleation score
49 | EASNCFAIRHFENKFAVETLICVNQRPVCRPCV | inactive
50 | EASNCFAIRHFENKFAVETLICLRVACDRCGGSW | -0.166
51 | EASNCFAIRHFENKFAVETLICFAFL | 8.28
52 | EASNCFAIRHFENKFAVETLICMHYSGLRVRVCC | inactive
53 | EASNCFAIRHFENKFAVETLICCGYTSNRASSWA | 8.41
54 | EASNCFAIRHFENKFAVETLICCYGRYVSYENRK | 1.47
55 | EASNCFAIRHFENKFAVETLICVWQNA | inactive
56 | EASNCFAIRHFENKFAVETLICCREDTGMPGSAP | inactive
57 | EASNCFAIRHFENKFAVETLICRFSLDFVLKCS | inactive
58 | EASNCFAIRHFENKFAVETLICPLSGYFSAHRRG | 5.96
59 | EASNCFAIRHFENKFAVETLICLVHLDLFVERFS | 0.868
60 | EASNCFAIRHFENKFAVETLICLECSSLRTGLVV | inactive
61 | EASNCFAIRHFENKFAVETLICCKFRVQFNKIEG | 3.78
62 | EASNCFAIRHFENKFAVETLICNLILGVVVSLLE | -0.0583
63 | EASNCFAIRHFENKFAVETLICCVRLYWVYSFEL | inactive
64 | EASNCFAIRHFENKFAVETLICVWKSLS | inactive
65 | EASNCFAIRHFENKFAVETLICLCYLFGRSGYVI | inactive
66 | EASNCFAIRHFENKFAVETLICIDSFRFATSWDM | inactive
67 | EASNCFAIRHFENKFAVETLICFLLLRFHYIYSW | inactive
68 | EASNCFAIRHFENKFAVETLICVMMGVGAALKKR | inactive

Row | Sequence | amyloid nucleation score
69 | EASNCFAIRHFENKFAVETLICGICGRNNECVSR | 5.46
70 | EASNCFAIRHFENKFAVETLICEGDIDKDSDFQV | inactive
71 | EASNCFAIRHFENKFAVETLICLAE | inactive
72 | EASNCFAIRHFENKFAVETLICFNNMHCL | 8.82
73 | EASNCFAIRHFENKFAVETLICPGMSVTDHMASG | -0.293
74 | EASNCFAIRHFENKFAVETLICRILHSSVGFFTS | inactive
75 | EASNCFAIRHFENKFAVETLICFHYCLYGCIR | inactive
76 | EASNCFAIRHFENKFAVETLICTDLPENGCRARG | inactive
77 | EASNCFAIRHFENKFAVETLICFRFPTRGLSISQ | inactive
78 | EASNCFAIRHFENKFAVETLICNYERAFKWFTLV | inactive
79 | EASNCFAIRHFENKFAVETLICVYYGYVALLSDK | inactive
80 | EASNCFAIRHFENKFAVETLICVTAYYMDGLSVA | inactive
81 | EASNCFAIRHFENKFAVETLICEPHALT | inactive
82 | EASNCFAIRHFENKFAVETLICFLTMPGEYAMDG | 5.81
83 | EASNCFAIRHFENKFAVETLICRGWVLSVLYEEG | 0.673
84 | EASNCFAIRHFENKFAVETLICFKSQHSWICPWF | 0.72
85 | EASNCFAIRHFENKFAVETLICVSFIRWSYTLYG | inactive
86 | EASNCFAIRHFENKFAVETLICYIYDQSKNFGLD | 8.96
87 | EASNCFAIRHFENKFAVETLICYILCR | inactive

same assay, conditions: random library (experiment): 3

Row | Sequence | amyloid nucleation score
88 | EASNCFAIRHFENKFAVETLICYLDCRKVMYSHG | 6.1
89 | EASNCFAIRHFENKFAVETLICLSKVTMQKCWSE | 1.7
90 | EASNCFAIRHFENKFAVETLICAPSTGWSLWR | inactive
91 | EASNCFAIRHFENKFAVETLICLRCYVSAGVTSA | inactive
92 | EASNCFAIRHFENKFAVETLICITVMGYGPRKNP | 3.17
93 | EASNCFAIRHFENKFAVETLICAVGVRGTRQESE | inactive
94 | EASNCFAIRHFENKFAVETLICWCGLYALSDGNW | inactive
95 | EASNCFAIRHFENKFAVETLICGLRVICIRCVGR | inactive
96 | EASNCFAIRHFENKFAVETLICVVYGA | 5.21
97 | EASNCFAIRHFENKFAVETLICQSSVAPAVRRGV | 0.426
98 | EASNCFAIRHFENKFAVETLICRCLYPEVVCLRD | inactive
99 | EASNCFAIRHFENKFAVETLICYVWKWRLRGEVR | -0.26
100 | EASNCFAIRHFENKFAVETLICLMWEWPLPRAQG | inactive
101 | EASNCFAIRHFENKFAVETLICERAWAVR | inactive
102 | EASNCFAIRHFENKFAVETLICVLRMAVVRTVLT | inactive
103 | EASNCFAIRHFENKFAVETLICWNVLLRMDVECR | inactive

Row | Sequence | amyloid nucleation score
104 | EASNCFAIRHFENKFAVETLICLGVAWGRMEQAW | inactive
105 | EASNCFAIRHFENKFAVETLICIPRNFFQLWRGR | 1.16
106 | EASNCFAIRHFENKFAVETLICRTDQVCLVTSFC | inactive
107 | EASNCFAIRHFENKFAVETLICIH | inactive
108 | EASNCFAIRHFENKFAVETLICFRSMNSMLWFGC | inactive
109 | EASNCFAIRHFENKFAVETLICPYV | 1.55
110 | EASNCFAIRHFENKFAVETLICRWVSLAGQGLCR | inactive
111 | EASNCFAIRHFENKFAVETLICLGRRMLWASLGS | inactive
112 | EASNCFAIRHFENKFAVETLICKSRLAGRVWLAL | inactive
113 | EASNCFAIRHFENKFAVETLICLRRLAW | inactive
114 | EASNCFAIRHFENKFAVETLICLEMITQNHWL | 3.15
115 | EASNCFAIRHFENKFAVETLICVLREGAPCVESA | inactive
116 | EASNCFAIRHFENKFAVETLICPSRVMYSNGRGM | 0.615
117 | EASNCFAIRHFENKFAVETLICCTGYLPISGDLG | 8.91
118 | EASNCFAIRHFENKFAVETLICGEELRAKKVQLV | inactive
119 | EASNCFAIRHFENKFAVETLICWVQSRWWKERCP | inactive
